Measurements taken from PubChem BioAssay AID1745845 (National Center for Advancing Translational Sciences (NCATS), 2022).
Screen size: about 360,000 compounds; about 2,600 (0.72%) were called active. Inconclusive results, whose numbers are uncertain, are shown with a selection of clear calls. Calls follow the shape of the dose curve; as a rule, active = well fitted inhibition curve with a large enough effect; inconclusive = small, poorly fitted or top-dose-only effect; inactive = no such curve, though single readings can be large or run the other way. Where the call is inconclusive, the potency comes from a doubtful curve fit.

experiment: Primary qHTS for Inhibitors of ATXN expression; conditions: HEK-293 ATXN2-luciferase reporter, luminescence, 24 h; activity change, negative = inhibition: at 57 µM (top of the series); also: nearly all actives have a fitted effect of over 55% in size
How it was run: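 qHTS (up to 57 uM final) was run with 24 h compound exposure of reporter cells at 37 °C. Each well was multiplexed: SteadyGlo luminescence measured ATXN2-luciferase expression after a fluorogenic Gly-Phe-AFC viability readout (25 uM final).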
% is scaled to controls: 0 for no effect and ±100 for the full control effect; potency is read from the fitted curve at half-maximal effect; tags tell the direction and shape of the fitted curve.

| SMILES | activity change, negative = inhibition | Potency |
| --- | --- | --- |
| Cc1ccc2cccc(OCc3nnc(SCC(=O)O)n3C)c2n1 | inconclusive: -39.9% [inhibitor] |  |
| CCn1nc(C)c2c(-c3ccccc3)cc(=O)n(C(C)C(=O)NCCc3ccccc3)c21 (stereo not given) |  | inconclusive: 39.8 µM [inhibitor, single point] |
| Clc1cccc(-c2cc3nc(NCCOc4ccccc4)ccn3n2)c1 | inactive: 11.4% |  |
| N#C/C(=C/c1ccc(O)c([N+](=O)[O-])c1)C(=O)Nc1ccccc1 |  | inconclusive: 10 µM [inhibitor, partial curve, poor fit] |
| CC(C)C(O)(C#CCN1CCCCC1)c1ccccc1 (stereo not given) | inactive: -4.11% |  |
| O=S(=O)(c1ccc(Cl)cc1Cl)n1ccc2cccnc21 | inactive: -13.8% |  |
| CCN(CC)C(=O)COc1ccc(-c2nnc(Nc3ccc(OC)c(C(=O)NC)c3)c3ccccc23)cc1 |  | inconclusive: 12.6 µM [inhibitor, partial curve, poor fit] |
| CN1C(CC(=O)Nc2ccc(Cl)cc2Cl)c2ccccc2CC1(C)C (stereo not given) | inactive: -7.43% |  |
| COc1ccccc1-c1nc(SCC(=O)Nc2ccc(C)c(C)c2)n[nH]1 |  | inconclusive: 39.8 µM [inhibitor, partial curve, poor fit] |
| Cc1nc(-c2cccc(NC(=O)c3ccc(-n4nccc4C)cc3)c2)cs1 |  | inconclusive: 39.8 µM [inhibitor, single point] |
| Cc1cccc(NC(=O)Cn2cnc3c(cnn3-c3ccc(F)cc3)c2=O)c1C |  | inconclusive: 12.6 µM [inhibitor, partial curve] |
| COCOCCn1cc(CN2CCS(=O)(=O)N(Cc3ccc(-c4ccc(Cl)cc4)cc3)C(CC(C)C)C2=O)nn1 (stereo not given) |  | inconclusive: 39.8 µM [inhibitor, single point] |
| COc1cc(OC)cc(C(=O)N2CCN(c3ccccc3F)CC2)c1 | inactive: -3.99% |  |
| Oc1cc(Nc2ccccc2)cc2cccnc12 |  | active: 31.6 µM |
| Cc1ccc(Cc2c(-c3ccc(C)cc3)nc3cc(C)ccn23)cc1 |  | inconclusive: 39.8 µM [inhibitor, single point] |
| CCOC(=O)C1NN=C(C(=O)c2ccc(C)cc2)C1c1ccc(C)cc1 (stereo not given) | inactive: 4.58% |  |
| COc1ccc(C=CC(=O)Nc2ccccc2C(=O)O)cc1OC |  | active: 0.968 µM |
| COc1ccc2cc(C(=O)C3CCCN(C(=O)CSc4nnc(C)o4)C3)ccc2c1 (stereo not given) |  | inconclusive: 17.8 µM [inhibitor, single point] |
| CC1=C(SCc2ccccc2)C(=O)c2ccccc2C1=O |  | inconclusive: 35.5 µM [inhibitor, partial curve, poor fit] |
| CCc1ccccc1Nc1cc(C(=O)NCCCN(C)C2CCCCC2)c2ccccc2n1 |  | inconclusive: 28.2 µM [inhibitor, partial curve, poor fit] |
| Cc1ccc(NC(=O)CN(C)C(=O)CSc2nc(C)cs2)cc1 | inactive: 4.9% |  |
| Cc1ccc(C)c(N2CCN(C(=O)c3nn(C)c4c3CS(=O)(=O)c3ccccc3-4)CC2)c1 |  | inconclusive: 25.1 µM [inhibitor, single point] |
| Cc1ccc(Cl)cc1N1CCN(S(=O)(=O)c2ccc(-c3ccc(=O)[nH]n3)o2)CC1 |  | inconclusive: 28.2 µM [inhibitor, single point] |

| SMILES | activity change, negative = inhibition | Potency |
| --- | --- | --- |
| COC(=O)c1c(NC(=S)NNC(=O)c2ccc(Cl)s2)sc(C(=O)N(C)C)c1C |  | inconclusive: 39.8 µM [inhibitor, single point] |
| O=S(c1ccc2ccccc2c1)c1cnns1 (stereo not given) | inactive: -5.66% |  |
| Cc1cccnc1CCNC(=O)c1ccc(OC2CCN(Cc3ccccn3)CC2)cc1 |  | inconclusive: 3.55 µM [inhibitor, partial curve, poor fit] |
| Cc1cccc(C(=O)NCCC(=O)NCc2ccccc2Cl)c1 | inactive: -5.35% |  |
| Cc1ccc(CNC(=O)[C@H](Cc2ccccc2)NC(=O)C2CCNCC2)cc1 | inactive: 22% |  |
| CN(C)CCNc1ccc2ncn3c4ccc(O)cc4c(=O)c1c23 |  | active: 3.98 µM |
| COC(C/C=C/C(=O)[C@@H](C)OCc1ccccc1)OC |  | inconclusive: 39.8 µM [inhibitor, single point] |
| CC(C)(C)C(=O)Nc1ccc(-c2nc3ccccc3c(=O)o2)cc1 | inactive: 0.909% |  |
| CN(C)c1nc(SCC(=O)Nc2ccc(Cl)c(Cl)c2)nc(N2CCOCC2)n1 | inactive: -13.4% |  |
| O=C(c1ccco1)N1CCN(c2ncnc3scc(-c4ccc(F)cc4)c23)CC1 | inactive: -10.1% |  |
| CN1C/C(=C/c2ccccc2[N+](=O)[O-])C(=O)/C(=C\c2ccccc2[N+](=O)[O-])C1 |  | inconclusive: 3.77 µM [inhibitor, full curve, poor fit] |
| O=C1CCCc2ccccc2N1Cc1ccc(Cl)cc1Cl |  | inconclusive: 28.2 µM [inhibitor, single point] |
| CCOC(=O)c1c(NC(=O)Cn2c(C)nc3ccccc32)sc2c1CCC2 |  | inconclusive: 25.1 µM [inhibitor, partial curve, poor fit] |
| CCOc1ccc2[nH]c3c(N4CCC5(CC4)OCCO5)ncnc3c2c1 |  | inconclusive: 7.52 µM [inhibitor, partial curve, poor fit] |
| COc1ccccc1CNCC(=O)Nc1cc(S(=O)(=O)N2CCCCCC2)ccc1Cl |  | inconclusive: 31.6 µM [inhibitor, partial curve, poor fit] |
| CCCC(=O)NC(c1ccc(Cl)cc1)c1ccc2cccnc2c1O (stereo not given) |  | active: 7.08 µM |
| CCOC1=C2[C@H](c3ccccc3)N(S(=O)(=O)c3ccc(C)cc3)C(C(C)(C)C)[C@H]2C(C#N)(C#N)C(C#N)(C#N)C1 (stereo not given in full) |  | active: 25.1 µM |
| Cc1cccc(C(=O)N2CCC(n3nnc4cc(F)ccc43)CC2)c1 |  | inconclusive: 39.8 µM [inhibitor, single point] |
| CC(=O)c1ccccc1OCCOc1ccccc1C(C)=O | inactive: -24.7% |  |
| Cc1sc2ncnc(N3CCC(C(=O)Nc4ccc(Cl)cc4Cl)CC3)c2c1C |  | inconclusive: 31.6 µM [inhibitor, single point] |
| Cn1c(=O)n(C)c2cc(NS(=O)(=O)c3ccc(C(C)(C)C)cc3)c(NCc3ccccc3)cc21 | inactive: 28.9% |  |
| Cc1ccc(C(=O)NCCN2CCN(C(=O)c3ccc(C)c(C)c3)CC2)cc1C | inactive: -19.8% |  |
